What was measured:
CD16a-158F FcR = CD16a-158F FcR (Homo sapiens, UniProt P08637); assay: ELISA: huCD16a-158F-HIS FcR probe binding to coated human IgG1; conditions: ELISA, words
huCD16a-158V FcR = huCD16a-158V FcR (Homo sapiens, UniProt P08637, F176V); assay: ELISA: huCD16a-158V-HIS FcR probe binding to coated human IgG1; conditions: words
[1] = biological target: T1, murine CD16a homolog 1 (FCGR3) (Mus musculus, UniProt P08508); assay: ELISA: muFCGR3-HIS probe binding to human IgG1; conditions: words
T1 sequence (P08508 with tags, fused parts or gaps): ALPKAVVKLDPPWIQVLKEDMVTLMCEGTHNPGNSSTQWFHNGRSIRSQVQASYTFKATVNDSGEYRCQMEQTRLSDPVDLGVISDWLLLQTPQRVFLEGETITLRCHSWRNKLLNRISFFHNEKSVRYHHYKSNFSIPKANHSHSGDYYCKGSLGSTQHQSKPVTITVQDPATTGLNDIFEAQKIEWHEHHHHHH

Chain of huCD16a-158V FcR (P08637 17-206 F176V): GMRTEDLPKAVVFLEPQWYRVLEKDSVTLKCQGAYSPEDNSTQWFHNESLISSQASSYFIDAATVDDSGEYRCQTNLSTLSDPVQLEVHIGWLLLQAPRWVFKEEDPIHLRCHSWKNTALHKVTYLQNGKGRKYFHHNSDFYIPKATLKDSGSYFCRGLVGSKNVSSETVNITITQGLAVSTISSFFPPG

Structure (SMILES) | enhancement of huCD16a-158F FcR binding to IgG1 antibody (CD16a-158F FcR) | enhancement of huCD16a-158V FcR binding to IgG1 antibody (huCD16a-158V FcR) | enhancement of muFCGR3-HIS binding to human IgG1 [1]
CC(C)=CCC[C@@H](C)[C@H]1CC[C@@]2(C)C3=C(CC[C@]12C)[C@@]1(C)CC[C@H](O)C(C)(C)[C@@H]1CC3 [Compound 1, lanosta-8,24-dien-3β-ol] | significantly enhance | significantly enhance | 
CC(C)=CCC[C@@H](C)[C@H]1CC[C@@]2(C)C3CC[C@H]4C(C)(C)[C@@H](O)CC[C@@]45C[C@@]35CC[C@]12C (some centres unmarked) [Compound 2] | significantly enhance | significantly enhance | enhances binding

Source: US20260256811A1, “Humoral Immune Activators for the Treatment of Humoral Immunosuppressed Pathologies, Cancer and Infectious Disease and Humoral Immune Suppressors for the Treatment of Inflammatory Diseases” (Navrogen, Inc., priority 2022, published 2026)
